In PMC11213948 (2024):
These are yes or no findings as the source states them, for the method shown. For some assays here: In cells and extracts the contact can be indirect. Some binding calls cover weakened binding; strength is not graded here. For some assays here: Where a sequence is shown, tags or fusion partners need not be part of it. Blank lines part the entries; values can stand above or below the molecule they belong to.

Amino acid sequences for entries named in this document (tags omitted).
UniProt Q16637: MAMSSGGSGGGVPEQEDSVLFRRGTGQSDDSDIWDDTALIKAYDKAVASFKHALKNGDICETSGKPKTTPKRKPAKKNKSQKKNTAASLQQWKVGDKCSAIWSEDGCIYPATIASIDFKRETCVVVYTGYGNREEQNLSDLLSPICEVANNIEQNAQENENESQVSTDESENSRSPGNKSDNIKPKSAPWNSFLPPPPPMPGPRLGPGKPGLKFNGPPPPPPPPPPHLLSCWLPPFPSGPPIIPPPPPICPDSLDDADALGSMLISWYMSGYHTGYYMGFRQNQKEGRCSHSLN
UniProt O14893: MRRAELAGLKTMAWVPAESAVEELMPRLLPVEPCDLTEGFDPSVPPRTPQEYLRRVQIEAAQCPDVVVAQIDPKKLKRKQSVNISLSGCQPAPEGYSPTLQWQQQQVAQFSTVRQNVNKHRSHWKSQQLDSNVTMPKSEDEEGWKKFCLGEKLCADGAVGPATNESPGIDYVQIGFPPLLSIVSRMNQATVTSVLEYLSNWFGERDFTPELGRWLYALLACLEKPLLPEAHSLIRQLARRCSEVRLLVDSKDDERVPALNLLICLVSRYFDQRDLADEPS
UniProt P57678: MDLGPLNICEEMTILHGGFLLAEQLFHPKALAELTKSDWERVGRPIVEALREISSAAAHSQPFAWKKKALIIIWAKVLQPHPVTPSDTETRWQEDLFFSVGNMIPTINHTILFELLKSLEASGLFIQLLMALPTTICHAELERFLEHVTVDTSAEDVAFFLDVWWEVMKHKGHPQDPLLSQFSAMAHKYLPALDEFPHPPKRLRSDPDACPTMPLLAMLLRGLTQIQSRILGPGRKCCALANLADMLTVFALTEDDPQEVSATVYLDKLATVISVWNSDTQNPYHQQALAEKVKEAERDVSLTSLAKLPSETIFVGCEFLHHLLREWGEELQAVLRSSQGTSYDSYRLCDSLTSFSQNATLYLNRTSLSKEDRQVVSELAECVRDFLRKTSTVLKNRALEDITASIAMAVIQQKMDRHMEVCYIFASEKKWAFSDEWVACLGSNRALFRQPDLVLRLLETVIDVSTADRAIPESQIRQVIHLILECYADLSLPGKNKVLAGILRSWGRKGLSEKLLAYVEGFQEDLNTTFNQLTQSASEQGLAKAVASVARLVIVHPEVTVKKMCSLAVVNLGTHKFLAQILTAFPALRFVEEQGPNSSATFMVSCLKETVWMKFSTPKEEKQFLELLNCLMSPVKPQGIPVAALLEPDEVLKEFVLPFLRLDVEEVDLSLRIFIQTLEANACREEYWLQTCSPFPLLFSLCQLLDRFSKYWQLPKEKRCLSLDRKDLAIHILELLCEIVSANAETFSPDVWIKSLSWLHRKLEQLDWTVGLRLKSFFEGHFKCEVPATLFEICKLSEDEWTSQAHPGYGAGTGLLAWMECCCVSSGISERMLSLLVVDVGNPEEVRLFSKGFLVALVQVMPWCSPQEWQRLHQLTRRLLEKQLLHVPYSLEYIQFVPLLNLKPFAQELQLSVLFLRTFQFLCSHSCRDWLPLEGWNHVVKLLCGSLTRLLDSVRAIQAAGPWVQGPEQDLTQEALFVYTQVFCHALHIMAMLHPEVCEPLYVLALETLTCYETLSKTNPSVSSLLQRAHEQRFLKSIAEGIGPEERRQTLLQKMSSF

What was measured:
[1] = target: Xpress-His G5_(1–1508)AxE (UniProt Q8TEQ6); assay: SDS-PAGE and western blot of oligomers resistant to DTT; lysates of HEK293 cells expressing Xpress-His constructs mixed with SDS-loading buffer with or without 5 mM additional DTT, 3 min 92 °C; western blot with anti-Xpress
[2] = target: TAP-tagged G5_(845–1287) (UniProt Q8TEQ6); assay: co-IP; TAP purification of TAP-tagged Gemin5 regions from transfected HEK293 cells, western blot with anti-SMN, anti-Gemin2 and anti-Gemin4; three independent experiments
[3] = target: TAP-tagged G5_(1287–1508) (UniProt Q8TEQ6); assay: as above
[4] = target: TAP-tagged G5_(1–739) (UniProt Q8TEQ6); assay: as above
[5] = target: TAP-tagged G5_(845–1508) (UniProt Q8TEQ6); assay: as above
[6] = target: TAP-tagged G5_(1–1287) (UniProt Q8TEQ6); assay: as above
[7] = target: TAP-tagged G5_(845–1508)AxE (UniProt Q8TEQ6); assay: as above
[8] = target: TAP-tagged G5_(1–1508) (UniProt Q8TEQ6); assay: as above
[9] = target: Xpress-His G5_(1–739) (UniProt Q8TEQ6); assay: SDS-PAGE and western blot of oligomers resistant to DTT; lysates of HEK293 cells expressing Xpress-His constructs mixed with SDS-loading buffer with or without 5 mM additional DTT, 3 min 92 °C; western blot with anti-Xpress
[10] = target: Xpress-His G5_(845–1287) (UniProt Q8TEQ6); assay: as above
[11] = target: Xpress-His G5_(1–1287) (UniProt Q8TEQ6); assay: as above
[12] = target: Xpress-His G5_(845–1287)AxE (UniProt Q8TEQ6); assay: as above
[13] = target: Xpress-His G5_(1287–1508) (UniProt Q8TEQ6); assay: pull-down; Ni-NTA agarose pull-down of Xpress-His proteins from lysates of HEK293 cells co-transfected with G5(1-1508)-FLAG; 10 mM Tris-HCl pH 7.5, 20 mM NaCl, 10 mM KCl, 5 mM MgCl2, 4 °C, 1 h; western blot with anti-FLAG and anti-Xpress
[14] = target: Xpress-His G5_(845–1508) (UniProt Q8TEQ6); assay: as above
[15] = target: Xpress-His G5_(1–1508)AxE (UniProt Q8TEQ6); assay: as above
[16] = target: Xpress-His G5_(1–739) (UniProt Q8TEQ6); assay: as above
[17] = target: Xpress-His G5_(1–1287) (UniProt Q8TEQ6); assay: as above
[18] = target: Xpress-His G5_(845–1287) (UniProt Q8TEQ6); assay: as above
[19] = target: Xpress-His G5_(845–1508)AxE (UniProt Q8TEQ6); assay: SDS-PAGE and western blot of oligomers resistant to DTT; lysates of HEK293 cells expressing Xpress-His constructs mixed with SDS-loading buffer with or without 5 mM additional DTT, 3 min 92 °C; western blot with anti-Xpress
[20] = target: Xpress-His G5_(1–1287)AxE (UniProt Q8TEQ6); assay: as above
[21] = target: T1, Xpress-His G5_(845–1508), Q8TEQ6; assay: as above; settings: remark: other sources report otherwise
T1 chain: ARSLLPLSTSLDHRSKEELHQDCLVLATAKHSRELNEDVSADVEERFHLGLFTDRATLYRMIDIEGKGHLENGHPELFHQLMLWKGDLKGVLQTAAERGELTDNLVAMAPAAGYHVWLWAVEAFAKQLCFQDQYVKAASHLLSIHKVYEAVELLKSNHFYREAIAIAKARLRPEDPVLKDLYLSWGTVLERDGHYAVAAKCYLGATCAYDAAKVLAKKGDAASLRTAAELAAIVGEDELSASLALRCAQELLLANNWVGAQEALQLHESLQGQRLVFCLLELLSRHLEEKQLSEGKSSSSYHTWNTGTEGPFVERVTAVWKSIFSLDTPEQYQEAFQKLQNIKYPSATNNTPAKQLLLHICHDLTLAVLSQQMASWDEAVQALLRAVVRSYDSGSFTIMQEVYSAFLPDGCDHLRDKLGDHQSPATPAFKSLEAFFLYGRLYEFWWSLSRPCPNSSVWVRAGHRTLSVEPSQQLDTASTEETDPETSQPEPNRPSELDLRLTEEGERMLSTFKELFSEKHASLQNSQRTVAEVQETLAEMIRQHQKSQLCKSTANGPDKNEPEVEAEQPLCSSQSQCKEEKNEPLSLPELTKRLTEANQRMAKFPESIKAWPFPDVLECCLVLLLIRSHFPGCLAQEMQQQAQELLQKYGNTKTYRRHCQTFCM

- binding [1]: binds
Molecule: Xpress-His G5_(1–1508)AxE (from UniProt Q8TEQ6 1-1508)

- binding [2]: binds
- binding [3]: no binding
- binding [4]: no binding
- binding [5]: binds
- binding [6]: binds
- binding [7]: no binding
- binding [8]: binds
Molecule: SMN (from UniProt Q16637 1-294)

- binding [9]: no binding
Molecule: Xpress-His G5_(1–739) (from UniProt Q8TEQ6 1-739) (domain or fragment)

- binding [10]: binds
Molecule: Xpress-His G5_(845–1287) (from UniProt Q8TEQ6 845-1287) (domain or fragment)

- binding [11]: binds
Molecule: Xpress-His G5_(1–1287) (from UniProt Q8TEQ6 1-1287) (domain or fragment)

- binding [12]: no binding
Molecule: Xpress-His G5_(845–1287)AxE (from UniProt Q8TEQ6 845-1287) (domain or fragment)

- binding [13]: no binding
- binding [14]: binds
- binding [15]: binds
- binding [16]: no binding
- binding [17]: binds
- binding [18]: binds
Molecule: G5_(1–1508)-FLAG (from UniProt Q8TEQ6 1-1508)

- binding [19]: no binding
Molecule: Xpress-His G5_(845–1508)AxE (from UniProt Q8TEQ6 845-1508) (domain or fragment)

- binding [2]: binds
- binding [3]: no binding
- binding [4]: no binding
- binding [5]: binds
- binding [6]: binds
- binding [7]: no binding
- binding [8]: binds
Molecule: Gemin2 (from UniProt O14893 1-280)

- binding [2]: binds
- binding [3]: no binding
- binding [4]: no binding
- binding [5]: binds
- binding [6]: binds
- binding [7]: no binding
- binding [8]: binds
Molecule: Gemin4 (from UniProt P57678 1-1058)

- binding [20]: no binding
Molecule: Xpress-His G5_(1–1287)AxE (from UniProt Q8TEQ6 1-1287) (domain or fragment)

- binding [21]: binds
B1: Xpress-His G5_(845–1508), Q8TEQ6 845-1508 (domain or fragment)
chain: ARSLLPLSTSLDHRSKEELHQDCLVLATAKHSRELNEDVSADVEERFHLGLFTDRATLYRMIDIEGKGHLENGHPELFHQLMLWKGDLKGVLQTAAERGELTDNLVAMAPAAGYHVWLWAVEAFAKQLCFQDQYVKAASHLLSIHKVYEAVELLKSNHFYREAIAIAKARLRPEDPVLKDLYLSWGTVLERDGHYAVAAKCYLGATCAYDAAKVLAKKGDAASLRTAAELAAIVGEDELSASLALRCAQELLLANNWVGAQEALQLHESLQGQRLVFCLLELLSRHLEEKQLSEGKSSSSYHTWNTGTEGPFVERVTAVWKSIFSLDTPEQYQEAFQKLQNIKYPSATNNTPAKQLLLHICHDLTLAVLSQQMASWDEAVQALLRAVVRSYDSGSFTIMQEVYSAFLPDGCDHLRDKLGDHQSPATPAFKSLEAFFLYGRLYEFWWSLSRPCPNSSVWVRAGHRTLSVEPSQQLDTASTEETDPETSQPEPNRPSELDLRLTEEGERMLSTFKELFSEKHASLQNSQRTVAEVQETLAEMIRQHQKSQLCKSTANGPDKNEPEVEAEQPLCSSQSQCKEEKNEPLSLPELTKRLTEANQRMAKFPESIKAWPFPDVLECCLVLLLIRSHFPGCLAQEMQQQAQELLQKYGNTKTYRRHCQTFCM
